Screen size: about 350,000 compounds; about 9,900 (2.8%) were called active. The shares of active, inactive and inconclusive entries below differ from those in the screen. Calls come from the whole dose curve; as a rule, active = well fitted activation curve with a large enough effect; inconclusive = small, poorly fitted or top-dose-only effect; inactive = no such curve, though single readings can be large or run the other way. No potency is given beside an inconclusive call; the fits are too rough.
Assay: A quantitative high throughput screen for small molecules that induce DNA re-replication in MCF 10a normal breast cells. For activity, positive = re-replication: % of control where 0% means no effect. Note: nearly all actives have a fitted effect of over 50% in size.
Conditions: MCF 10A DNA re-replication, Hoechst nuclear intensity, 48 h; activity, positive = re-replication: at 46.1 µM (top of the series)
Potency is the fitted concentration of half-maximal effect; tags give direction and shape of the fitted curve.

| SMILES | Potency | activity, positive = re-replication |
| --- | --- | --- |
| COc1cc(OC)cc(-c2c(-c3ccsc3)c3cc(Br)ccc3n2C)c1 | inconclusive [activator, full curve] | – |
| COc1cc(-c2cc(C(=O)Nc3ccc(N4CCOCC4)cc3)c3ccccc3n2)cc(OC)c1OC | – | inactive: 3.52% |
| CCn1c(CSc2nc3ccccc3s2)nnc1SCC(=O)c1ccc(O)cc1O | – | inactive: -3.83% |
| COc1c(C(=O)Nc2ccc(CN3CCOCC3)cc2)cc2ccccc2c1Br | inconclusive [activator, partial curve, poor fit] | – |
| Cc1c(Cl)ccc2c(C(=O)NCCCn3nccc3C)cc(-c3ccccn3)nc12 | inconclusive [activator, single point] | – |
| CCN(CC)c1ncnc2c1[nH]c1ccccc12 | inconclusive [activator, partial curve, poor fit] | – |
| CC(OC(=O)c1cc(=O)c2cc(Cl)ccc2o1)C(=O)N1CCCC1 (stereo not drawn) | inconclusive [activator, full curve, poor fit] | – |
| Cc1ccc(-n2cc(CN(C)Cc3nccn3C)c(-c3cccc(C)c3)n2)cc1 | inconclusive [activator, single point] | – |
| CCOc1ccccc1CN1CCN(C2CCN(c3ccccc3F)CC2)CC1CCO (stereo not drawn) | inconclusive [activator, full curve, poor fit] | – |
| CCCSc1cc(N2CCOCC2)nc(-c2ccccc2Cl)n1 | inconclusive [activator, partial curve, poor fit] | – |
| O=C(NCc1nc2ccccc2[nH]1)c1ccccc1F | inconclusive [activator, partial curve, poor fit] | – |
| CC(=O)c1cccc(NC(=O)COC(=O)C2CCCN2C(=O)c2cccs2)c1 (stereo not drawn) | inconclusive [activator, single point] | – |
| CN(C)Cc1ccc(F)cc1Sc1ccc(Cl)cc1Cl | – | inactive: -1.45% |
| CC(C)(C)NC(=O)COc1coc(CN2CCN(Cc3ccccc3)CC2)cc1=O | – | inactive: 20.2% |
| CC(C)(C)C1CCC(=NNc2ncc(C(F)(F)F)cc2Cl)CC1 (stereo not drawn) | inconclusive [activator, single point] | – |
| C/C(=N/NC(=O)c1ccc(Cl)s1)c1cccnc1 | – | inactive: 9.86% |
| COc1ccc(N(C(=O)/C=C/C(=O)Nc2cc(C)on2)C(C(=O)NC2CCCC2)c2ccccc2C)cc1 (stereo not drawn) | inconclusive [activator, single point] | – |
| CCOC(=O)c1c(-c2ccccc2)nnn1-c1nc(OCC)nc(N2CCCCC2)n1 | active: 14.6 µM | – |
| O=C(Nc1ccccc1F)c1ccc(COc2ccc(Cl)cc2Cl)o1 | – | inactive: 15.1% |
| CCCCCn1c(=O)[nH]c2cc(C(=O)NCCCN(CC)CC)ccc2c1=O | inconclusive [activator, partial curve, poor fit] | – |
| COc1ccc(Cl)c2sc(N(CCN(C)C)C(=O)c3ccc4c(c3)OCCO4)nc12 | – | inactive: 3.85% |
| C#CCOCCOCCOCCNc1nc(N2CCN(C(=O)[C@H](CCC(=O)O)n3cc(C(N)Cc4ccc(O)cc4)nn3)CC2)nc(N2CCN(C(=O)[C@H](CCC(=O)O)n3cc(C(N)[C@H](C)CC)nn3)CC2)n1 (stereo partly drawn) | inconclusive [activator, full curve, poor fit] | – |
| Cc1c(OCC(=O)N[C@H](C(=O)O)c2ccccc2)ccc2c3c(c(=O)oc12)CCCC3 | inconclusive [activator, full curve, poor fit] | – |

| SMILES | Potency | activity, positive = re-replication |
| --- | --- | --- |
| COc1ccc(C(=O)C[n+]2cc(-c3ccc(OC)cc3)n3c2CCCC3)cc1 | inactive | – |
| CC(C)c1nn2c(N)c(/C=C3\C=Nc4ccccc43)c(=O)nc2s1 | inconclusive [activator, single point] | – |
| Cc1cc(NS(=O)(=O)c2ccc(NC(=O)c3ccc([N+](=O)[O-])s3)cc2)nc(C)n1 | active: 18.4 µM | – |
| O=C(NNC(=O)c1ccccc1O)c1ccc(S(=O)(=O)Nc2ccccc2F)cc1 | inconclusive [activator, full curve, poor fit] | – |
| Cc1ccc(N=C2NC(=O)/C(=C\c3ccco3)S2)cc1 | – | inactive: -4.66% |
| CCC[C@@H]1C[C@@]1(CCC)[C@@H](NP(=O)(c1ccccc1)c1ccccc1)c1ccc(C(=O)OC)cc1 | inconclusive [activator, full curve, poor fit] | – |
| COc1cc2c(cc1OC)C(c1ccccc1)N(C(=O)c1cccc(S(C)(=O)=O)c1)CC2 (stereo not drawn) | inconclusive [activator, partial curve, poor fit] | – |
| Cc1ccc(/C=N/N2CCN(Cc3ccc(Cl)cc3)CC2)o1 | inconclusive [activator, single point] | – |
| CCCCOc1ccc(C(=O)NCC(=O)NCC(=O)OCC)cc1 | inconclusive [activator, single point] | – |
| CCn1ncc(Br)c1C(=O)Nc1nccs1 | inconclusive [activator, partial curve, poor fit] | – |
| CC(=O)Nc1ccc(N2C(=O)C3C4CC(=O)C(c5ccccc54)C3C2=O)cc1 (stereo not drawn) | inconclusive [activator, single point] | – |
| CC(C)c1ccc(-c2noc(C3CCCN(C(=O)c4ccc(F)cc4F)C3)n2)cc1 (stereo not drawn) | active: 11.6 µM | – |
| O=S(=O)(CCN1CCSCC1)c1ccc(Cl)cc1 | inconclusive [activator, partial curve] | – |
| CCOC(=O)C1=C(C)NC(C)=C(C(=O)OCC)C1c1ccc(Br)o1 | inconclusive [activator, single point] | – |
| COc1cc(/C=C/C(=O)c2ccc(C)cc2)ccc1OCC#N | inconclusive [activator, full curve] | – |
| CCCn1c(=O)[nH]c2ccccc21 | – | inactive: -1.53% |
| CC(C)(C)C1CCC(OCC(O)CN2CCN(c3ccccc3)CC2)CC1 (stereo not drawn) | active: 20.6 µM | – |
| CC1Cc2ccccc2N1C(=O)CN1CCc2ccccc2C1 (stereo not drawn) | inconclusive [activator, single point] | – |
| CCc1nnc(NC(=O)CN2CCC(O)(c3ccccc3OC)CC2)s1 | – | inactive: 3.95% |
| CCc1ccc(CN2CCN(S(=O)(=O)Cc3ccccc3)CC2)cc1 | – | inactive: 26.5% |
| O=C(O)CSCC(=O)Nc1ccccn1 | inconclusive [activator, partial curve, poor fit] | – |
| COc1ccccc1Oc1ccc2c(c1)C(=O)N(c1cccc(O)c1)C2=O | inconclusive [activator, single point] | – |
| Cc1cc(C)nc(Sc2ncnc3c2oc2ccccc23)n1 | inconclusive [activator, partial curve, poor fit] | – |

| SMILES | Potency | activity, positive = re-replication |
| --- | --- | --- |
| N#Cc1c(NC(=O)CSc2nc(-c3ccccc3)cc(C(F)(F)F)n2)sc2c1CCC2 | inconclusive [activator, full curve, poor fit] | – |
| CCCn1c(CN(C)Cc2ccccc2)nc2c1c(=O)n(C)c(=O)n2C | – | inactive: 8% |
| CCC1(COC(NC(=O)c2cccnc2)(C(F)(F)F)C(F)(F)F)COC1 | – | inactive: 19% |
| O=C(COc1cccc2ccccc12)Nc1cc(Cl)ccc1C(=O)O | active: 6.51 µM | – |
| CCCCOc1cccc(C(=O)NC(=S)Nc2ccc(Cl)c(C(=O)O)c2)c1 | – | inactive: -9.04% |
| OCCNc1nc(Nc2ccccc2C(F)(F)F)nc(N2CCCC2)n1 | inconclusive [activator, partial curve, poor fit] | – |
| CC(CN1CCCC1)OC(=O)c1ccc(Br)cc1 (stereo not drawn) | – | inactive: 5.24% |
| Cn1cnc([N+](=O)[O-])c1Sc1ncnc2nc[nH]c12 | inconclusive [activator, partial curve, poor fit] | – |
| COc1ccc(NC(=S)N2CCC(NC(=O)c3ccc(OC)cc3)CC2)cc1 | inconclusive [activator, single point] | – |
| Cc1ccc(NC(=S)N(CCN(C)C)Cc2cc3cc(C)cc(C)c3[nH]c2=O)cc1 | – | inactive: 17.3% |
| Cc1cc(-c2ccc(C)c(S(=O)(=O)NCCCN(Cc3ccccc3)C(C)C)c2)on1 | inconclusive [activator, partial curve, poor fit] | – |
| CN(C)c1cccc(C(=O)OCCNC(=O)c2cccc(S(=O)(=O)N3CCOCC3)c2)c1 | – | inactive: 1.66% |
| O=S(=O)(CCSc1nc2ccccc2o1)Cc1ccccc1 | inconclusive [activator, single point] | – |
| CN(CC(=O)Nc1cccc(S(=O)(=O)N2CCCC2)c1)CC(=O)Nc1ccc(F)c(F)c1F | – | inactive: -0.094% |
| Cc1ccccc1NC(=O)c1cc2c(=O)n3cccc(C)c3nc2s1 | inconclusive [activator, partial curve] | – |
| Cc1ccc(C(=O)Nc2ccccc2C(=O)NCc2cccnc2)cc1 | – | inactive: 14.9% |
| CCCCC(=O)Nc1ccc(NC(=O)CCCC)nc1 | – | inactive: -9.85% |
| COc1ccccc1N1CCN(C(=O)c2cc(C)oc2C)CC1 | inconclusive [activator, partial curve, poor fit] | – |
| N#Cc1c(NC(=S)NC(=O)C2CCCC2)sc2c1CCCCC2 | inconclusive [activator, partial curve] | – |
| CC(C)CNC(=O)COC(=O)c1cc(S(=O)(=O)N(C)C)ccc1N1CCCC1 | inconclusive [activator, single point] | – |
| CCCc1cc(=O)[nH]c(SCC(=O)c2ccc3c(c2)OCCO3)n1 | inconclusive [activator, partial curve, poor fit] | – |
| CC(O)c1c(OCc2ccccc2)ncnc1OCc1ccccc1 (stereo not drawn) | inconclusive [activator, single point] | – |
